From PubChem BioAssay (NCI)
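Dose response: 5 concentrations. Exposure: 48 h. Format: 96-well plates. Endpoint: linear interpolation; highest concentration if not reached. GI50 marks 50% less growth. TGI denotes the concentration required for complete inhibition of growth.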 Square brackets hold non-standard residues; d marks the D form. Peptide text beside a SMILES is read from it. * marks the point of attachment. Bn2Val = CC(C)[C@@H](C(=O)*)N(Cc1ccccc1)Cc1ccccc1; NH(4-Cl-benzyl) = Clc1ccc(CN*)cc1; NMeV = CN[C@H](C(=O)O)C(C)C; dNMeA = CN[C@H](C)C(=O)O

system: NCI-H322M lung; test: growth of human tumour cells (NCI), 48 h

SMILES | TGI [µM] | GI50 [µM]
CC(C)CCCC(C)[C@H]1CCC2[C@@H]3CCC4Nc5c(cnn5-c5ccccc5)C[C@]4(C)C3CC[C@@]21C (stereo partly drawn) | > 100 | 
c1ccc2c(c1)oc1ccc3nsnc3c12 | > 100 | 
CN1CCc2c1nc(-c1ccc(Cl)cc1)c1c2N(C)CC1 | 48.4 | 
Nc1ccc(S(=O)(=O)Nc2nc3ccccc3nc2N2CCCCCC2)cc1 | > 100 | 
Cc1cc(=O)[nH]c(NN2C(Cl)C(=O)C2c2ccc([N+](=O)[O-])cc2)n1 (stereo not drawn) | 25.1 | 
NCc1cccc(O)c1O | > 100 | 
CN(C)Cc1cc(C(=O)/C=C/c2ccccc2)cc(CN(C)C)c1O | > 100 | 
CC1(C)CC2(CC(C)(C)N1O)NC(=O)OC2=O | > 100 | 
N.N.N.N.N.O=[N+]([O-])[O-].[Co+3].[O-][Cl+3]([O-])([O-])[O-] | > 100 | > 100
O=c1ncccn1C1OC(CO)C(O)C1O (stereo not drawn) | > 100 | 
NNC(=O)C(=O)N/N=C1\CCC(=O)CC1C(=O)CCC(=O)Nc1ccc(Cl)cc1 (stereo not drawn) | > 100 | 
O=C(O)c1ccccc1N=Cc1ccc(N(CCCl)CCCl)cc1 | > 100 | 
COc1cc2c(cc1OC)C(=O)/C(=C/c1cc(-c3ccc4c(c3)OCO4)n[nH]1)C2 | 3.01 | 1.54
c1ccc(-c2nc(N3CCOCC3)c3c4c(sc3n2)CCCCCC4)nc1 | 20.1 | 5.53
CC(=O)O[C@]1(C)OC(=O)[C@@H](CC(C)C)N1[N+](=O)[O-] | > 100 | 
O=C(O)CCNCCCCNCCC(=O)O | > 100 | 
CCCCCCCCNCCC[C@@H](C)[C@H]1CC[C@H]2[C@@H]3[C@H](OCCCN)C[C@H]4C[C@H](OCCCN)CC[C@]4(C)[C@H]3C[C@H](OCCCN)[C@]12C | 14.1 | 2.62
NNC(=O)C1(NC(=O)c2ccccc2)C(c2ccccc2)C(c2ccccc2)=NN1c1ccccc1 (stereo not drawn) | > 100 | 
C[Si](C)(C)/C=C\CCO | > 100 | 
O=c1[nH]c2ccccc2n1CCCN1CCC(n2c(=O)[nH]c3cc(Cl)ccc32)CC1 | 40 | 
c1ccc(/C(=N/Nc2ccncn2)c2ccccn2)cc1 | > 100 | 
CN(Cc1cnc2nc(N)nc(N)c2n1)c1ccc(C(=O)NC(CO)CCCO)cc1 (stereo not drawn) | > 100 | 
COc1ccc(Nc2ccc3ccccc3c2-c2c(O)ccc3ccccc23)cc1 | 32.1 | 
O=C(NCCc1ccccn1)OCc1nc2nc(Cl)nc(N3CCOCC3)c2[nH]1 | 18.7 | 5.68
COC(=O)C1=C(C(=O)OC)C2(C)C=CC1O2 (stereo not drawn) | > 100 | 

SMILES | TGI [µM] | GI50 [µM]
c1ccc2c(-c3nc(-c4c[nH]c5ccncc45)cs3)c[nH]c2c1 | 5.38 | 2.05
C1=C2CCCC3=Cc4ccccc4OC23Oc2ccccc21 | > 100 | 3.92
Cc1cc(O)c(C2=NN(c3ccc(S(N)(=O)=O)cc3)C(c3ccc(Cl)cc3)C2)c(C)c1Cl (stereo not drawn) | 20.2 | 5.01
C=CCO/N=C(\OC(=O)c1ccc([N+](=O)[O-])cc1)c1ccccc1 | > 100 | 
Cc1cc2c([nH]c3ccccc32)c(O)c1-c1c(C)cc2c([nH]c3ccccc32)c1O | 29.9 | 
CC(=O)NC1C(OCc2ccccc2)OC(CO)C(O)C1OC(C)C(=O)NC(C(=O)NC(CCC(=O)NCCCCNc1c2ccccc2nc2cccc([N+](=O)[O-])c12)C(N)=O)C(C)C (stereo not drawn) | 28.8 | 
O=c1[nH]n(Cc2ccccc2)c2ccc([N+](=O)[O-])cc12 | > 100 | 
Cc1ccc(S(=O)(=O)c2ccccc2[N+](=O)[O-])cc1 | > 100 | 
CCCCCC[C@H](C)Nc1nc2ccccc2c2occc12 | 27.4 | 12.6
COc1cc(C2C(Cl)C(=O)N2c2c(C)n(C)n(-c3ccccc3)c2=O)ccc1O (stereo not drawn) | > 100 | 
COc1ncnc(S(=O)(=O)c2ccc(N=C3C(=O)N(CN4CCN(c5cc6c(cc5F)c(=O)c(C(=O)O)cn6C5CC5)CC4)c4ccc(Cl)cc43)cc2)c1OC | 36.8 | 11
C/C(=N\NC(=S)N(C)C)c1cccnn1 | > 100 | 
CCOC(=O)Nn1c(CC#N)nnc1Cc1ccccc1 | > 100 | 
C=CC(=O)Nc1cc(N2CCN(CC)CC2)ccc1Nc1cc(N(C)C(=O)Nc2c(Cl)c(OC)cc(OC)c2Cl)ncn1 | 26.4 | 12.7
O=P1(S)OC[C@H]2O[C@@H]3[C@H](F)[C@@H]2OP(O)(=S)OC[C@H]2O[C@H]([C@H](F)[C@@H]2O1)n1cnc2c(ncnc21)NC/C=C/CNc1ncnc2c1ncn23 (stereo partly drawn) | > 100 | > 100
C=C1CCC2(C#N)[C@H]3[C@H](CC[C@@H]2C)[C@@H](C)C[C@@H](CC(C)(C)NC(=O)CN2CCC2=O)[C@H]13 (stereo partly drawn) | 42.2 | 12.2
S=c1nc(N/N=C/c2ccco2)c2cn[nH]c2[nH]1 | > 100 | 10.8
CCCCCCCCCCCCCCCCCCNc1nc(=O)n(C2CC(O)C(COP(=O)(O)O)O2)cc1F (stereo not drawn) | > 100 | 
Cc1cc(C)c2c(c1)C(=O)/C(=C/c1ccccc1C(=O)O)C2 | > 100 | 
COc1cccc(N[C@@H]2c3cc4c(cc3C(c3cc(OC)c(O)c(OC)c3)[C@H]3C(=O)OCC32)OCO4)c1 (stereo partly drawn) | > 100 | 
Cc1c(-c2ccnc(N)n2)c2c(n1Cc1ccccc1)C(=O)c1ccccc1C2=O | 39.1 | 5.27
O=C1NC(=O)C(C(CC(=O)c2ccc(Cl)cc2)c2ccc(Cl)cc2)C(=O)N1 (stereo not drawn) | > 100 | 
Cc1cc(N(CCC#N)CCC#N)ccc1N=Nc1ccc(Br)cc1 | > 100 | 
O=C1CC(c2[nH]nc3ccccc23)C(=O)N1c1ccccc1 (stereo not drawn) | > 100 | 
COc1ccc(C(SC2C(O)C(CO)OC2n2ccc(=O)[nH]c2=O)(c2ccccc2)c2ccc(OC)cc2)cc1 (stereo not drawn) | 40.1 | 

SMILES | TGI [µM] | GI50 [µM]
CC(C)(C)CC(C)(C)c1cc(O)c(O)c(CN2CCCCC2)c1 | 30.4 | 
Cc1ccccc1N=C(N)Nc1ccccc1C | > 100 | 
CCOC(=O)c1cc(C)nc2c1c(=O)n(-c1ccccc1)c(=O)n2CCCCN1CCN(c2ccccc2)CC1 | > 100 | 
CCOc1c(N=Nc2ccccc2Cl)c(-c2ccccc2)nn1C(=S)S | > 100 | 
COC(=O)C1C(O)C(C)C(O)C(C)C=C(C)C2=C3C(=C(C)C(=O)c4c(O)c(c(C)c(OC(C)=O)c43)NC(=O)C(C)=C/C=C\C(C)C(O)C(C)C1O)OCO2 (stereo not drawn) | > 100 | 
COC(=O)c1c2c(cc3c1CC1(Cc4cc5c(c(C(C)=O)c4C1)CCC5)C3)CCC2 (stereo not drawn) | > 100 | 
NN=C(CC(O)(C(F)(F)Cl)C(F)(F)Cl)CC(O)(C(F)(F)Cl)C(F)(F)Cl | > 10 | 
C=C=C(CC(CC(=C)Br)(C(=O)OC)C(=O)OC)S(=O)(=O)c1ccccc1 | 26.9 | 
CC(C)[C@H](NC(=O)[C@H](C(C)C)N(Cc1ccccc1)Cc1ccccc1)C(=O)N(C)[C@H](C(=O)N1CCC[C@H]1C(=O)N(C)[C@H](C)C(=O)NCc1ccc(Cl)cc1)C(C)C (Bn2Val-V[NMeV]P[dNMeA]-{NH(4-Cl-benzyl)}) | > 100 | 
C#Cc1nc2ccccc2c(=O)[nH]1 | 11.1 | 3.22
COC(=O)C1C(=O)N(C)C(=O)N2CCCC12 (stereo not drawn) | > 100 | 
CCOC(=O)N1CCc2cc(OC)c(OC)cc2/C1=C\c1ccc(OC)c(OC)c1 | > 100 | 
O=C(O)COc1cc(-c2ccccc2)nc2cc(F)ccc12 | > 100 | 
COc1cc2cc(C(=O)N3CC(COS(C)(=O)=O)c4ccc(O)cc43)[nH]c2c(OC)c1OC (stereo not drawn) | 0.118 | 
COc1cc(C)c(C2NC(=O)c3ccccc3N2)cc1C (stereo not drawn) | > 100 | 
c1cncc(CNCc2cccnc2)c1 | > 100 | 
Cn1cc(C2=C(c3cn(C)c4ccc(Cl)cc34)C(=O)NC2=O)c2ccccc21 | 21.7 | 6.61
COc1cc2c(cc1O)CC1c3c(cc(O)c(OC)c3-2)CCN1C (stereo not drawn) | > 100 | 
Cc1nc2ccc(NC(=O)CCNC(=O)CCCc3ccc(CC(C(=O)O)C(=O)O)cc3)cc2s1 | > 100 | > 100
CCN=C1C=CC(=C(c2ccc(N(CC)CC)cc2)c2ccc(N(CC)CC)cc2)c2ccccc21 | 1.19 | 0.24
OCc1ccc(-c2cscc2-c2ccc(CO)o2)o1 | 67.2 | 11.3
CSCCCNC(=O)c1ccc2c(c1)/C(=C/c1[nH]c(C)cc1C)C(=O)N2 | > 100 | 0.434
CN(C)/N=N/c1nc2c(c(=O)n(C)c(=O)n2C)n1CC(O)CO (stereo not drawn) | > 100 | 
CC1=NN(C(=O)c2ccc(Cl)cc2)C(=O)/C1=C/c1ccccc1O | > 100 | 
O=c1oc(C(C(F)(F)F)C(F)(F)F)nc2ccccc12 | > 100 | 

SMILES | TGI [µM] | GI50 [µM]
CCN(CC)C(=S)SS(=O)(=O)c1cccc(N)c1 | > 100 | 
COc1cc(C2C3=C(COC3=O)Oc3cc4c(cc32)OCO4)cc(OC)c1O (stereo not drawn) | 49.5 | 
O=C(CCN1CCN2c3ccccc3CCC2C1)c1ccc(F)cc1 (stereo not drawn) | > 100 | 
C1CC2CN(CCCN3CCOCC3)C(C1)O2 (stereo not drawn) | > 100 | 
NCCOCCOCCNc1nc(-c2ccc(Cl)cc2)nc(N2CCN(c3ccccn3)CC2)n1 | 13.2 | 3.55
CC(C)OP(=O)(OC(C)C)/C(N)=N/Nc1ccc([N+](=O)[O-])cc1 | > 100 | 
Cc1nn2c(/C=C3/C(=O)Nc4cc(Cl)ccc43)c(-c3ccccc3)nc2s1 | > 100 | 3.84
Cc1ccc(S(=O)(=O)c2nc(-c3ccccc3)oc2S(C)=O)cc1 (stereo not drawn) | 20.5 | 7.5
C/C(=N\Nc1nc2cc(C(F)(F)F)ccc2s1)c1ccccn1 | 16.3 | 
CC(C)(C)C(=CS(=O)/N=C/c1ccccc1)C(C)(C)C (stereo not drawn) | > 100 | 
CC(C)(C)[Si](C)(C)OCc1cccc(OCCOc2cccc(CO[Si](C)(C)C(C)(C)C)c2[N+](=O)[O-])c1[N+](=O)[O-] | > 100 | 
O=C1CC(=O)n2cnc3cccc(c32)N1 | > 100 | 
O=C(c1ccccc1)c1c(NCC(O)CN2CCOCC2)n(Cc2ccccc2)c(=O)n(Cc2ccccc2)c1=O (stereo not drawn) | > 100 | 46.9
CC(C)(C)OC(=O)NCC(CNC(=O)OC(C)(C)C)c1nc(C(N)=O)cs1 | > 100 | 
Cc1ccc(N=Nc2c(O)ccc3ccccc23)cc1 | > 100 | 
O=C1/C(=C/c2ccccc2)CN(C(=O)CCN2CCCC2)C/C1=C\c1ccccc1 | 7.02 | 
C=CCC1C(O[Si](C)(C)C(C)(C)C)C(CO[Si](C)(C)C(C)(C)C)OC1n1ccc(=O)[nH]c1=O (stereo not drawn) | 3.04 | 
CC(=O)Nc1ccc(OC/C(N)=N/NC(=O)c2ccncc2)cc1 | > 100 | 
Cc1ccc(S(=O)(=O)Nc2nnc(S(N)(=O)=O)s2)cc1 | > 100 | 
C/C(=N\Nc1nc2ccccc2n1C)c1cc2ccccc2cn1 | 12.4 | 
C1CC[N-]CC1.CC(=N\O)/C(C)=N/O.CC(=N\O)/C(C)=N/O.OC1[CH-]CCCC1.[Co+2] | > 100 | > 100
CN=C(/N=c1\ssc(=NC)n1C)N(C)C | > 100 | 
